We go through five molecules from PMC9807637.

Sequences of proteins named here, by UniProt entry; tags and fusion partners are left off.
UniProt P59017: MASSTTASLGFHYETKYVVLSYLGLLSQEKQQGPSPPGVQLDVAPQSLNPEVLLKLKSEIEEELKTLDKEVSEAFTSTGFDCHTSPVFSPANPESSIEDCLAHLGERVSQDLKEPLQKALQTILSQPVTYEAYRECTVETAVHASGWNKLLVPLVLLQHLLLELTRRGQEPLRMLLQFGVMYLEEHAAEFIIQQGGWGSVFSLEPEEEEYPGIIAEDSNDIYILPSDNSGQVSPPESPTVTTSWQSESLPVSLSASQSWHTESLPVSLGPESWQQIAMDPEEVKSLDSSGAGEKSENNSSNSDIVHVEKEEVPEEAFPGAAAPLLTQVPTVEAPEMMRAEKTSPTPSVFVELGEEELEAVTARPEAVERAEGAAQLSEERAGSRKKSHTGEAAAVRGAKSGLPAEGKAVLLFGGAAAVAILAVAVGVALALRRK
UniProt Q8K3K8: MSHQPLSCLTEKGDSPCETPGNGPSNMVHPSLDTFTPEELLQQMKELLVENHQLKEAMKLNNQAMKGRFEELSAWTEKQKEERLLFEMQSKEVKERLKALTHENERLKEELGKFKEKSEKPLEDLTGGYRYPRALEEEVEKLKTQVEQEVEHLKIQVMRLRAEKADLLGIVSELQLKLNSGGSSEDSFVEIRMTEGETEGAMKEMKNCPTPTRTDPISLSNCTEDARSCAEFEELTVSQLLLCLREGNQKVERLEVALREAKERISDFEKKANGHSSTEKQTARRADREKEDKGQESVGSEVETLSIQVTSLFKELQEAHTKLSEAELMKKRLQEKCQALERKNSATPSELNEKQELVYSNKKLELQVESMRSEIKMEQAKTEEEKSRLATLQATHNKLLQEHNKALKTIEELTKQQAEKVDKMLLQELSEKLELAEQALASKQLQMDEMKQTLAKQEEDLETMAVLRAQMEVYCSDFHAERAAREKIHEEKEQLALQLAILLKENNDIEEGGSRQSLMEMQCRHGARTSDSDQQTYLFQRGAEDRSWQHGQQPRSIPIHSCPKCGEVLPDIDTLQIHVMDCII
UniProt Q9Z2F7: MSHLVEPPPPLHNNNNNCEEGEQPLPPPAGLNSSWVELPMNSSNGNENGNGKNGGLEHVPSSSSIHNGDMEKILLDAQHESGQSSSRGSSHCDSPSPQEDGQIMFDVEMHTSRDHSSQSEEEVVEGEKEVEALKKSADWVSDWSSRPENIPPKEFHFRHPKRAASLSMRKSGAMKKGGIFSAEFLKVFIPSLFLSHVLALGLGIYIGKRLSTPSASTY

No constants are given. Whether binding was seen depends on the method and setting. Binding seen in cells or lysates may run through a third protein. Some entries that bind do so weakly or less than the wild type. For some of these results: Where a sequence is shown, tags or fusion partners need not be part of it.

Assay [1] concerns the target T1, GST-PHB1 (UniProt P35232).
T1 sequence: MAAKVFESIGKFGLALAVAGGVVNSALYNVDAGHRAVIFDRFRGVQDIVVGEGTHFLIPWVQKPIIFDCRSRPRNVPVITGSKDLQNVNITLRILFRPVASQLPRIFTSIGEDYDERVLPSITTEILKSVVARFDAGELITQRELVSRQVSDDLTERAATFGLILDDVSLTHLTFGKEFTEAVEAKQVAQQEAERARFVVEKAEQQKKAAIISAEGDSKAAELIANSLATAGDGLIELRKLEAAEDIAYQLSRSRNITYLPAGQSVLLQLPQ
Nature of the assay: pull-down; GST-PHB1 immobilized on glutathione agarose beads; 500 ug protein from primary mouse IECs (wild-type or Parkin-/-) or Mode-K cells, 4 °C for 2 h; washed 3 times with 2 mM HEPES-HCl, 150 mM NaCl, 1 mM EDTA, 0.5% Tween; western blotting; only the target purified.

For assay [2], the target named is T2, Prohibitin 1 (mouse (endogenous in ileal IECs and Mode-K cells)) (UniProt P67778).
T2 sequence: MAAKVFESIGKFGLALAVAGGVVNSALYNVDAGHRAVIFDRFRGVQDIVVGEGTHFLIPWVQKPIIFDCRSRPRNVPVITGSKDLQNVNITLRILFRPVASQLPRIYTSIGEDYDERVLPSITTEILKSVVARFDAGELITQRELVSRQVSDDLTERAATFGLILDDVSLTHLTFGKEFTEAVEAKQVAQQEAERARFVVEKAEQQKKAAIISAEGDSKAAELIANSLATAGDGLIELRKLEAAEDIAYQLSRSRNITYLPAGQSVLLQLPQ
Nature of the assay: co-IP; Mode-K cells, vehicle, N-acetyl-l-cysteine (NAC) or mitoTEMPO; basal PHB1/Nix interaction (Fig. S13).

Assay [3] concerns the target T2, Prohibitin 1 (mouse (endogenous in ileal IECs and Mode-K cells)). Nature of the assay: co-IP; primary ileum IECs from wild-type or Parkin-/- mice, treated with 500 nM rotenone or vehicle for 2 h; 1 mg pre-cleared total protein, IP with PHB1 antibody or control IgG at 4 °C for 16 h, Protein G Plus-Agarose; immunoblot for Nix or PHB1. (In western blotting, separated proteins are transferred to a membrane and probed.)

As for Bcl2L13 (from UniProt P59017 1-434), the binding result in assay [1] is recorded as “no binding”. Still for that read-out and setting: for Optineurin (from UniProt Q8K3K8 1-584) the value was “no binding”.

As for Nix/Bnip3L (from UniProt Q9Z2F7 1-218), the binding result in assay [2], in assay [3] and in assay [1] was “binds” throughout.

B1: FundC1 (protein, UniProt Q9DB70 1-155)
chain: MASRNPPPQDYESDDESYEVLDLTEYARRHHWWNRVFGHSSGPMVEKYSVATQIVMGGVTGWCAGFLFQKVGKLAATAVGGGFLLLQVASHSGYVQIDWKRVEKDVNKAKRQIKKRANKAAPEINNIIEEATDFIKQNIVISSGFVGGFLLGLAS
For B1, in assay [1], the binding entry is recorded as “no binding”.

B2: NDP52 (protein, UniProt A2A6M5 1-331)
chain: MDQCPIPTLLEHGNFSQVLFNNVEKFYAPRGDIMCYYTLTEKFIPRRKDWIGIFKVGWKTTQEYYTFMWAPLPKDQNKDSATQQEIQFKAYYLPKDVERYQFCYVDEDGLVRGTSVPFQFCPDPDEDIMVVINKEKVEEMEQLSEELYQQNQELKDKYADLHEQLQRKQVALEATQRVNKTLEHKVEEKASWEKEKASWEEEKASWEEEKASWEEEKASWEEEKASWEEEKASWEEEKASWEEEKASWEEEKASWEEEKASWEEEKASWEEEKASWEEEKASWEEEKASWEKEKASWEEEKASWEKEKAPWEVEKAPWKEVKAYWWNDLHR
Consider B2, for which, in assay [1], the binding entry is reported as “no binding”.
